Consider 1 molecule from patent publication US6730301.

This experiment concerns the target T1, MIP-1α/RANTES receptor (Homo sapiens (Human), UniProt P32246 1-355).
T1 sequence: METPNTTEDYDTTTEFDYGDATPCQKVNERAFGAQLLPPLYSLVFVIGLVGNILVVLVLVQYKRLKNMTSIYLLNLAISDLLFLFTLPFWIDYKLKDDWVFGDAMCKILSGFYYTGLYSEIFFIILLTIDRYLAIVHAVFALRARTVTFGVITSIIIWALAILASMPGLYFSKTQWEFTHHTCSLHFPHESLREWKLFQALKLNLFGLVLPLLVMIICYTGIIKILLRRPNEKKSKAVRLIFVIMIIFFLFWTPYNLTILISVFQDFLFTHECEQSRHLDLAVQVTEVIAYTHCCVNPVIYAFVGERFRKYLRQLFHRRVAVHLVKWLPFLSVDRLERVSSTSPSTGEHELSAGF
The experiment in a line: cell-based or functional assay.

B1: IL-8 (interleukin-8) (ligand)
chain: not shown
Take B1: the “IC50, Inhibition of Adenylyl Cyclase” value is greater than 1000 nM.
